Test [1] has as its target T1, recombinant human LAG3 protein (rhLAG3), HIS-tagged (ACRO) or biotinylated (R&D Cat #2319-C3) (human, UniProt P18627 23-450, biotinylated in part of the assays).
T1 sequence: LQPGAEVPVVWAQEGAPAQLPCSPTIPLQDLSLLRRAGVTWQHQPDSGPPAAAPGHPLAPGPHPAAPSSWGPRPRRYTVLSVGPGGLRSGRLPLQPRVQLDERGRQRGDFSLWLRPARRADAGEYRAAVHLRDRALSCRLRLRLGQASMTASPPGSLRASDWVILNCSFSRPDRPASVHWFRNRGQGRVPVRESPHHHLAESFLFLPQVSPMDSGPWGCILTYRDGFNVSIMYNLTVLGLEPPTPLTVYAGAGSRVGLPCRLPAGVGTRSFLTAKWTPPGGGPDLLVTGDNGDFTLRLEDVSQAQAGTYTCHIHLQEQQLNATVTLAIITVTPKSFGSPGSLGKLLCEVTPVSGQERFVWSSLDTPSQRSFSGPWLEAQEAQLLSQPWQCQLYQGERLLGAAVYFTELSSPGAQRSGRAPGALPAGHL
The test is described as follows: flow cytometry competition: inhibition of biotinylated rhLAG3 binding to MHC class II on Daudi cells; PE-streptavidin detection. The protocol: Daudi cells expressing Major Histocompatibility Class II (MHCII) molecules, the natural ligand for LAG3, were used to measure the ability of anti-PD1/LAG3 bi-specific antibody constructs to block biotinylated (ThermoFisher, Cat #21329) recombinant human LAG3 protein (rhLAG3, R&D Cat #2319-C3) binding. Cells were seeded at 100,000 cells/well in 100 μL of FACS buffer in 96-well polypropylene plates. The cells were centrifuged and resuspended with test antibodies (2× concentration) diluted in FACS buffer, immediately followed by equal volume of biotinylated rhLAG3 (added at 2× concentration; 7.5 μg/mL final). Cells were incubated on ice for 1 hour and washed twice. Biotinylated rhLAG3 binding was detected with 2 μg/mL R-Phycoerythrin-conjugated Streptavidin (eBioscience) for 30 minutes. Cells were washed twice with FACS buffer, fixed in 4% paraformaldehyde in PBS for 20 mins on ice in the dark, washed twice with FACS buffer, and analyzed using the BD LSR II Flow Cytometer. Data were analyzed using FlowJo (FlowJo, LLC; Ashland, Oreg.) to determine mean fluorescence intensities. Prism 6 software was used to create one site, specific binding with Hill slope curves (Log transform) to determine IC₅₀ values. […]

Test [2] concerns the target T2, human LAG3 expressed on the cell surface (CHO-LAG3, 293T-LAG3 cells) (human, UniProt P18627 23-525).
T2 construct: Stably transfected CHO or HEK293T cells; also called Human LAG3 (CHO); Human LAG3 (293T)
T2 sequence: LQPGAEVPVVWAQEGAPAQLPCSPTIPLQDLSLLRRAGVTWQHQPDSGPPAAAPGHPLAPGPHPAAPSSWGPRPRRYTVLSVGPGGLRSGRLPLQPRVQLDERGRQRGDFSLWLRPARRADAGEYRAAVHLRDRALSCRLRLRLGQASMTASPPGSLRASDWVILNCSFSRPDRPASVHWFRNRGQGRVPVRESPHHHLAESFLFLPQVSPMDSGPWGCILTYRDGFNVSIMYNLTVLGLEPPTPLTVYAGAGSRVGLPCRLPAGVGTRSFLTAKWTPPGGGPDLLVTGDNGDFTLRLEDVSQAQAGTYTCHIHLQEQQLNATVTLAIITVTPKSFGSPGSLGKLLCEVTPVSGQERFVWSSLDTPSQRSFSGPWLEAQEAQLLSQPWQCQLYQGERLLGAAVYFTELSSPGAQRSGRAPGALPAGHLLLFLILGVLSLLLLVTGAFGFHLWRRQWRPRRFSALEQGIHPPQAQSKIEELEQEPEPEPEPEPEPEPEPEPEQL
The test is described as follows: flow cytometry cell binding on CHO cells expressing human LAG3; PE anti-human IgG detection; one site-specific binding with Hill slope fit. The protocol:
CHO-k cells stably expressing PD-1 or LAG3 (human or cynomolgus) on the cell surface were used to assess binding affinity of anti-PD-1/LAG3 bispecific antibody constructs. Cells were seeded at 100,000 cells/well in 100 μL of FACS buffer (1×PBS, 0.5% BSA, 0.1% sodium azide) in 96-well polypropylene plates. The cells were centrifuged at 1.5K rpm and resuspended with test antibodies diluted in FACS buffer and incubated on ice for 1 hour. The cells were washed twice with FACS buffer and incubated on ice for 30 mins with R-Phycoerythrin-AffiniPure F(ab′)2 Fragment Goat Anti-Human IgG (H+L) secondary detection antibody (1:200 dilution, Jackson ImmunoResearch Laboratories, West Grove, Pa.). The cells were washed twice with FACS buffer, fixed in 4% paraformaldehyde in PBS (Santa Cruz Biotechnology; Dallas, Tex.) for 20 mins on ice in the dark, washed twice with FACS buffer, and analyzed using the BD LSR II Flow Cytometer (BD Biosciences; San Jose, Calif.). Data were analyzed using FlowJo (FlowJo, LLC; Ashland, Oreg.) to determine mean fluorescence intensities. Binding constants were calculated using the statistical software, GraphPad Prism (GraphPad Software; La Jolla, Calif.) using the nonlinear regression equation, one site—specific binding with Hill slope. The secondary antibody by itself was used as a control.
A general note: Flow cytometry measures light scatter and fluorescence of single cells or particles in a stream.

B1: PD-1/LAG3 Bi-specific Construct A: aPD1 1353-G10 scFv_zwB × aLAG3 Fab_zwA (bispecific antibody, human IgG1, kappa)
scFv: MEVQLVQSGAEVKKPGASVKVSCKASGYRFPHYGISWVRQAPGQGLEWMGWISAYNGNTNYAQKLQGRVTMTTDTSTNTAYMELRSLRSDDTAVYYCARDVDYGTGSGYWGQGTLVTVSSGGGGSGGGGSGGGGSSYELTQPPSVSVSPGQTARITCSGDALPKQYAYWYQQKPGQAPVMVIYKDTERPSGIPERFSGSSSGTKVTLTISGVQAEDEADYYCQSADNSITYRVFGGGTKVTVLAAGSDQ[no letters for human IgG1 Fc with changes]
heavy: MQVQLVESGGGVVQPGRSLRLSCAASGFTFSSYGMHWVRQAPGKGLEWVAVIWYDGSYKYYADSVKGRFTISRDNSKNTLYLQMNSLRAEDTAVYYCAREEAPENWDYALDVWGQGTTVTVSSASTKGPSVFPLAPSSKSTSGGTAALGCLVKDYFPEPVTVSWNSGALTSGVHTFPAVLQSSGLYSLSSVVTVPSSSLGTQTYICNVNHKPSNTKVDKKVEPKSCDKTHTCPPCPAPELLGGPSVFLFPPKPKDTLMISRTPEVTCVVVDVSHEDPEVKFNWYVDGVEVHNAKTKPREEQYNSTYRVVSVLTVLHQDWLNGKEYKCKVSNKALPAPIEKTISKAKGQPREPQVYVYPPSREEMTKNQVSLTCLVKGFYPSDIAVEWESNGQPENNYKTTPPVLDSDGSFALVSKLTVDKSRWQQGNVFSCSVMHEALHNHYTQKSLSLSPGK
light: [no letters for about 100 residues][no letters for about 120 residues]
notes: also called 1449-G09.2-Fab-zwA
In the case of B1, the IC50 in test [1] stood at 39 nM. In test [2], the Bmax is 1040 MFI and the Kd was found to be 0.5 nM.

By IC50 is commonly meant the concentration needed to halve the response being measured. What is called Kd is the equilibrium constant for the complex coming apart. A high value points to a looser complex.

The record behind these values is US20200079850A1 (SUTRO BIOPHARMA, published 2020).
